Reference: patent US20240002501A1 (Memorial Sloan Kettering, published 2024)
Where a chain is given by its changes, count along the chain named. In names and notes the source's numbering stands. Like-named read-outs stand apart in the source and are kept apart here.

What was measured:
[1] = biological target: T1, L1-CAM on L1-CAM(+) human tumor cells (human, UniProt P32004 20-1257); experiment: cell-based or functional assay
[2] = biological target: T1, L1-CAM on L1-CAM(+) human tumor cells; experiment: cell-based or functional assay; remark: listed apart in the source
L1-CAM-Fc [3] = biological target: T2, L1-CAM-Fc (UniProt P32004 20-1120, limits assumed); experiment: SPR (Biacore T100), L1-CAM-Fc immobilised on CM5 chip
T2 construct: also called antigen L1-CAM-Fc; not shown: Fc part
Method: (§1) In Vitro Binding Kinetics by Biacore T-100 Biosensor (GE Healthcare, Uppsala, Sweden). CM5 sensor chip (Research grade) and related reagents were purchased from Biacore USA (Piscataway, NJ). Antigen L1-CAM-Fc or L1-CAM-His was directly immobilized onto the CM5 sensor chip according to the manufacturer's instructions. Purified monoclonal antibodies (MoAbs) (mouse, chimeric IgG1 and IgG4, and humanized IgG1 and IgG4 versions of E71 and E72, and their IgG1n glycoforms) were diluted in HBS-EP buffer at varying concentrations (41.7˜666.7 nM) prior to analysis. Samples were injected over the sensor surface at a flow rate of 30 μl/min over 1 min. Association time was set for 1 min, dissociation time was set for from 5 min to 15 min. At the end of each cycle, the surface was regenerated using 50 mM NaOH at a flow rate of 50 μl/min over 1 min. The data were analyzed by the bivalent analyte model and default parameter setting for the rate constants using the Biacore T-100 evaluation software, and the apparent association on rate constant (kₒₙ), dissociation off rate constant (koff) and equilibrium dissociation constant (Kd=koff/kₒₙ) were calculated.
The binding of huE71-BsAb and huE72-BsAb to both target cells and effector cells was tested by FACS immunostaining. huE71-BsAb was equally efficient as parental huE71 in binding to L1-CAM(+) neuroblastoma BE(2)C, whereas the binding of huE72-BsAb to BE(2)C was half of that observed with huE71-BsAb (FIG. 38(A)). For binding to CD3(+) T cells, both huE71-BsAb and huE72-BsAb were less efficient compared to huOKT3 IgG1; around 20 fold weaker than huOKT3 (FIG. 38(B)). The reduced avidity of the light chain-anchored scFv of the BsAbs for T cells was attributable in part to the spatial constraints of this format, but is advantageous for minimizing cytokine release especially when target cells were not present.

L1-CAM-Fc [4] = biological target: T2, L1-CAM-Fc; experiment: as above; remark: listed apart in the source
Method: as §1

[5] = biological target: T1, L1-CAM on L1-CAM(+) human tumor cells; experiment: Lindmo cell binding assay of the radiolabelled antibody on SKOV3 cells
Method: FIGS. 48(A)-48(E) show the immunoreactivity of ⁸⁹Zr-radiolabeled L1-CAM antibodies of the present technology. The radioimmunoconjugates were functionally characterized for binding to antigen-expressing cells (SKOV-3) and the determination of the immunoreactive fraction via Lindmo assays (Ben Q W et al., Ann Surg Oncol 17:2213-21 (2010)). Aliquots of each radioimmunoconjugate, 50 μL of 1 μCi/mL stock were added to tubes containing 5.0×10⁵-5.0×10⁶ cells/mL (in triplicate) in 500 μL PBS, 1% BSA (pH 7.4 to a final volume of 550 μL). Cell bound activity was counted and data graphed on double-reciprocal plot. Immunoreactive fractions are presented as mean percentages of triplicate samples±SEM.
Immunoreactivity. The immunoreactive fraction of the ⁸⁹Zr-DFO-antibodies was determined using a Lindmo cell binding assay (Ben Q W et al., Ann Surg Oncol 17:2213-21 (2010)). To this end, SKOV3 cells were suspended in microcentrifuge tubes at concentrations ranging from 5.0×10⁵-5.0×10⁶ cells/mL in 500 μL PBS, 1% BSA (pH 7.4). Aliquots of ⁸⁹Zr-DFO-antibody (50 μL of 1 μCi/mL stock were added to each tube to a final volume of 500 μL. The samples were incubated on a thermomixer for 60 min at 37° C. The treated cells were then pelleted via centrifugation (1400 RPM for 4 min), aspirated supernatant, and washed three times with cold PBS before removing the supernatant and counting the cell-associated radioactivity. The activity data were background-corrected and compared with the total number of counts in appropriate control samples. Immunoreactive fractions were determined by linear regression analysis of a plot of (total/bound) activity against (1/[normalized cell concentration]).
To determine the extent to which these antibodies were able to bind the target post-radiolabeling, immunoreactivity assays were performed. Briefly, the ⁸⁹Zr-labeled antibodies were incubated with increasing concentrations of target positive ovarian cancer cells (SKOV3) and, following washes, the cell bound activity was counted and used to calculate the immunoreactive fraction.

T1 sequence (P32004 20-1257 limits assumed): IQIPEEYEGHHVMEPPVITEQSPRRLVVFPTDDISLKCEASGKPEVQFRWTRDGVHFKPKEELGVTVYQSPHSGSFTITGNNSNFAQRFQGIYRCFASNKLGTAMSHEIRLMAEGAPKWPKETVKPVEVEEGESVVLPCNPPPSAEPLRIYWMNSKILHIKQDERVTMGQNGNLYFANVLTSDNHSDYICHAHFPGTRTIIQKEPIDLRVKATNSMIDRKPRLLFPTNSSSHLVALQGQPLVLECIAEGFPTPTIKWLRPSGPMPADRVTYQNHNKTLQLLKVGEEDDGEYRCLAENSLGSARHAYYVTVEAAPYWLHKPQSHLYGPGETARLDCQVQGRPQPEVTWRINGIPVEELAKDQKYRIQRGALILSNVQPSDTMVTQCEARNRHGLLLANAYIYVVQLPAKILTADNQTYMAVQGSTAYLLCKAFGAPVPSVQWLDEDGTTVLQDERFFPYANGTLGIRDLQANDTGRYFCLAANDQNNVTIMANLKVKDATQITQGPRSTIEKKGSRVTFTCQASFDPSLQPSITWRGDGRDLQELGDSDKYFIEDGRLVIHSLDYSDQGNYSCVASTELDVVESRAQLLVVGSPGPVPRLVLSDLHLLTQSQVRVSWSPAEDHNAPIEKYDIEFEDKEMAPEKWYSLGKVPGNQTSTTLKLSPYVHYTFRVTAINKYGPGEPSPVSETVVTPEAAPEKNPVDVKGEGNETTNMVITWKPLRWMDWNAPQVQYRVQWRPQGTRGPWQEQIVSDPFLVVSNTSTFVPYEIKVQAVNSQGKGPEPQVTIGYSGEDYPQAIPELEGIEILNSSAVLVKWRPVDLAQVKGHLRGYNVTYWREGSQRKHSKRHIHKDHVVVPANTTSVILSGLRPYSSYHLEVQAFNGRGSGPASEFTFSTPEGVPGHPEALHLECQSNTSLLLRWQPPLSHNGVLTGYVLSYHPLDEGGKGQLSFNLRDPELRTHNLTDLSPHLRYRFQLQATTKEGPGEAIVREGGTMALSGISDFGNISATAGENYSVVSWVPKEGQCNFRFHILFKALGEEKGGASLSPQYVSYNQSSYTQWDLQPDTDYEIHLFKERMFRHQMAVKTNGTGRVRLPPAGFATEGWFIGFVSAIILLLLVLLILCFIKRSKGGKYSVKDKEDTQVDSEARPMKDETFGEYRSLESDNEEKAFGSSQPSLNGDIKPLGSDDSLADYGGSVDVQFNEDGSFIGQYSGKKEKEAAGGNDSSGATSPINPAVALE
T2 sequence (P32004 20-1120 limits assumed): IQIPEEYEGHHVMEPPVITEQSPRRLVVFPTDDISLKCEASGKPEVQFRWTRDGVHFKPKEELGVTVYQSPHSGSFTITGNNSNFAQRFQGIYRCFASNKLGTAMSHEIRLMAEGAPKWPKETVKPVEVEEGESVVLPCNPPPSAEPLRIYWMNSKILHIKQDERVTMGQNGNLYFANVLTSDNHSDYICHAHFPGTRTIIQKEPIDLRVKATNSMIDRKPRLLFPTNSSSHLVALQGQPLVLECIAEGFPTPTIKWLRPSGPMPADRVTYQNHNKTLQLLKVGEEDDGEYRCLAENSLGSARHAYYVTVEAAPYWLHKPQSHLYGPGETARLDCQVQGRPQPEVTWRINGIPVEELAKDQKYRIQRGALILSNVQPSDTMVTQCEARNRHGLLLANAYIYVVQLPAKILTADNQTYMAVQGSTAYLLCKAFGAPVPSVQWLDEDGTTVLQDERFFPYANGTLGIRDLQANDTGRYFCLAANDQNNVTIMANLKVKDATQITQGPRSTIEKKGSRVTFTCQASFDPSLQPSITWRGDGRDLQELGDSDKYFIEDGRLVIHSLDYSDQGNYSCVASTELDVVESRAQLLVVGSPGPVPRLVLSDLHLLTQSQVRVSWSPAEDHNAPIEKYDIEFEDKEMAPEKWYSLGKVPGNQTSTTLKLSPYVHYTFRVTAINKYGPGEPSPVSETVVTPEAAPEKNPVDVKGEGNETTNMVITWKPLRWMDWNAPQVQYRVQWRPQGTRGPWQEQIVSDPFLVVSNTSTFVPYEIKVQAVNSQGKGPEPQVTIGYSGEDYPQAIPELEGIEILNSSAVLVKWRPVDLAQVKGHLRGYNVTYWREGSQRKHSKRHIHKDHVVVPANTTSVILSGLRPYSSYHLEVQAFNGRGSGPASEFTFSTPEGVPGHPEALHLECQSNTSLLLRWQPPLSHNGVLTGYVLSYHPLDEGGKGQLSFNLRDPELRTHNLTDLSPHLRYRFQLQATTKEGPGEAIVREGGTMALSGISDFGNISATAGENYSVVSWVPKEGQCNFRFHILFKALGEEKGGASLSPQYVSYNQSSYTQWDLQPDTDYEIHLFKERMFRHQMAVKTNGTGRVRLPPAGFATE

B1: huE71-BsAb (huE71-huOKT3) (bispecific antibody, human IgG1, kappa, N297A)
heavy: QVQLVQPGDELVKPGASVKLSCKASGYTFTSYWMQWVKQRPGQGLEWIGEINPSNGRTNYNEMFKSKAVLSVDKSVSTAYMQLSSLTAEDTAVYYCALYDGYYAMDYWGQGTLVTVSSASTKGPSVFPLAPSSKSTSGGTAALGCLVKDYFPEPVTVSWNSGALTSGVHTFPAVLQSSGLYSLSSVVTVPSSSLGTQTYICNVNHKPSNTKVDKRV[human IgG1 Fc with N297A K322A (EU numbers) not shown]
light: DIVMTQSPSSLAVSVGERVTMSCKSSQSLLYSSNQKNYLAWYQQKPGQSPKLLIYWASTRESGVPDRFSGSGSGTDFTLTISSVKAEDVALYYCQQYHSYPFTFGQGTKLEIKRTVAAPSVFIFPPSDEQLKSGTASVVCLLNNFYPREAKVQWKVDNALQSGNSQESVTEQDSKDSTYSLSSTLTLSKADYEKHKVYACEVTHQGLSSPVTKSFNRGECTSGGGGSGGGGSGGGGSQVQLVQSGGGVVQPGRSLRLSCKASGYTFTRYTMHWVRQAPGKCLEWIGYINPSRGYTNYNQKFKDRFTISRDNSKNTAFLQMDSLRPEDTGVYFCARYYDDHYSLDYWGQGTPVTVSSGGGGSGGGGSGGGGSGGGGSGGGGSGGGGSDIQMTQSPSSLSASVGDRVTITCSASSSVSYMNWYQQTPGKAPKRWIYDTSKLASGVPSRFSGSGSGTDYTFTISSLQPEDIATYYCQQWSSNPFTFGCGTKLQITR
notes: IgG-scFv format: huOKT3 scFv fused to the C-terminus of the huE71 light chain by a (G4S)3 linker; also called humanized E71-BsAb
[1]
  T cell cytotoxicity EC50, 4-hour 51Cr release assay, activated T cells (E:T ratio=10:1), IMR32-luciferase cell line: 0.0629 nM
[2]
  EC50 of T cell cytotoxicity (4 h 51Cr release, E:T 10:1) on BE(1)N neuroblastoma cells (L1CAM MFI 614): 0.016 nM
  EC50 of T cell cytotoxicity (4 h 51Cr release, E:T 10:1) on BE(2)C neuroblastoma cells (L1CAM MFI 608): 0.05 nM
  EC50 of T cell cytotoxicity (4 h 51Cr release, E:T 10:1) on BE(2)S neuroblastoma cells (L1CAM MFI 166): 0.251 nM
  EC50 of T cell cytotoxicity (4 h 51Cr release, E:T 10:1) on HTB24 breast CA cells (L1CAM MFI 431): 0.056 nM
  EC50 of T cell cytotoxicity (4 h 51Cr release, E:T 10:1) on HTB26 breast CA cells (L1CAM MFI 33): 0.056 nM
  EC50 of T cell cytotoxicity (4 h 51Cr release, E:T 10:1) on IMR32 LUC neuroblastoma cells (L1CAM MFI 285): 0.062 nM
  EC50 of T cell cytotoxicity (4 h 51Cr release, E:T 10:1) on MCF7 breast CA cells (L1CAM MFI 54): 0.158 nM
  EC50 of T cell cytotoxicity (4 h 51Cr release, E:T 10:1) on NB1691 neuroblastoma cells (L1CAM MFI 742): 0.031 nM
  EC50 of T cell cytotoxicity (4 h 51Cr release, E:T 10:1) on NMB7 neuroblastoma cells (L1CAM MFI 224): 0.056 nM
  EC50 of T cell cytotoxicity (4 h 51Cr release, E:T 10:1) on SKMEL5 melanoma cells (L1CAM MFI 269): 0.02 nM
  EC50 of T cell cytotoxicity (4 h 51Cr release, E:T 10:1) on SKMEL28 melanoma cells (L1CAM MFI 184): 0.15 nM
  EC50 of T cell cytotoxicity (4 h 51Cr release, E:T 10:1) on SKNMM LUC neuroblastoma cells (L1CAM MFI 598): 0.094 nM
  EC50 of T cell cytotoxicity (4 h 51Cr release, E:T 10:1) on SKNSH neuroblastoma cells (L1CAM MFI 23): 0.158 nM
L1-CAM-Fc [3]
  Kd: 5.15 nM
  koff: 0.000339 s⁻¹
  kon: 65800 M⁻¹ s⁻¹

B2: huE71-IgG1 (huE71 H1/L1) (antibody)
heavy: QVQLVQPGDELVKPGASVKLSCKASGYTFTSYWMQWVKQRPGQGLEWIGEINPSNGRTNYNEMFKSKAVLSVDKSVSTAYMQLSSLTAEDTAVYYCALYDGYYAMDYWGQGTLVTVSS[human IgG1 constant region not shown]
light: DIVMTQSPSSLAVSVGERVTMSCKSSQSLLYSSNQKNYLAWYQQKPGQSPKLLIYWASTRESGVPDRFSGSGSGTDFTLTISSVKAEDVALYYCQQYHSYPFTFGQGTKLEIKRTVAAPSVFIFPPSDEQLKSGTASVVCLLNNFYPREAKVQWKVDNALQSGNSQESVTEQDSKDSTYSLSSTLTLSKADYEKHKVYACEVTHQGLSSPVTKSFNRGEC
notes: Wild-type human IgG1, made in DG44 or CHO-S cells; also called parental huE71; humanized E71 IgG1
L1-CAM-Fc [3]
  Kd: 4.62 nM
  koff: 0.000325 s⁻¹
  kon: 70300 M⁻¹ s⁻¹

B3: chE71-IgG1 (antibody)
heavy: B2 heavy with V5Q, V69T, S71T, V76S, A88S, T91S, L113S
light: B2 light with T5S, R18K, S69T, V89L, Q106S
notes: also called chimeric E71
L1-CAM-Fc [4]
  Kd: 14.9 nM

B4: chE71-IgG4 (antibody)
heavy: QVQLQQPGDELVKPGASVKLSCKASGYTFTSYWMQWVKQRPGQGLEWIGEINPSNGRTNYNEMFKSKATLTVDKSSSTAYMQLSSLTSEDSAVYYCALYDGYYAMDYWGQGTSVTVSSASTKGPSVFPLAPCSRSTSESTAALGCLVKDYFPEPVTVSWNSGALTSGVHTFPAVLQSSGLYSLSSVVTVPSSSLGTKTYTCNVDHKPSNTKVDKRV[human IgG4 Fc not shown]
light: B2 light with T5S, R18K, S69T, V89L, Q106S
L1-CAM-Fc [4]
  Kd: 15.2 nM

B5: huE71-IgG4 (antibody)
heavy: B4 heavy with Q5V, T69V, T71S, S76V, S88A, S91T, S113L
light: B2 light
notes: unlabelled form of m13; also called HuE71-4 WT (unlabelled)
L1-CAM-Fc [4]
  Kd: 15.2 nM

B6: huE71-IgG1n (antibody)
heavy: B2 heavy
light: B2 light
modifications: variant Fc glycosylation from GnT1-deficient CHO cells (glycans lacking alpha-1,6-fucose)
notes: also called huE71-IgGn; HuE71-1 MAGE (unlabelled)
L1-CAM-Fc [4]
  Kd: 38.8 nM

B7: 89Zr-HuE71-1 MAGE (antibody, human IgG1, kappa)
heavy: B2 heavy
light: B2 light
modifications: p-SCN-Bn-DFO chelator on random lysines of the antibody, 89Zr-labelled; glycans lacking alpha-1,6-fucose (GnT1-deficient CHO); p-SCN-Bn-DFO chelator on random lysines of the antibody, 89Zr-labelled, average 2.38 chelates per antibody
notes: also called 89Zr-huE71-IgG1n; 89Zr-HuE71-IgGn (MAGE)
[5]
  immunoreactive fraction: 89.5%

B8: 89Zr-HuE71-1 WT (antibody, human IgG1, kappa)
heavy: B2 heavy
light: B2 light
modifications: p-SCN-Bn-DFO chelator on random lysines of the antibody, 89Zr-labelled; p-SCN-Bn-DFO chelator on random lysines of the antibody, 89Zr-labelled, average 1.41 chelates per antibody
notes: also called HuE71-1 WT (radiolabelled)
[5]
  immunoreactive fraction: 93.1%

B9: 89Zr-HuE71-1 Aglyco (antibody)
heavy: QVQLVQPGDELVKPGASVKLSCKASGYTFTSYWMQWVKQRPGQGLEWIGEINPSNGRTNYNEMFKSKAVLSVDKSVSTAYMQLSSLTAEDTAVYYCALYDGYYAMDYWGQGTLVTVSS[human IgG1 constant region with changes not shown]
light: B2 light
modifications: p-SCN-Bn-DFO chelator on random lysines of the antibody, 89Zr-labelled; Aglycosylated through N297A. p-SCN-Bn-DFO chelator on random lysines, average 1.07 per antibody, labelled with 89Zr; the positions are not defined.
notes: also called HuE71-1 Aglyco (radiolabelled)
[5]
  immunoreactive fraction: 85.8%

B10: 89Zr-HuE71-4 WT (antibody, human IgG4, kappa)
heavy: B4 heavy with Q5V, T69V, T71S, S76V, S88A, S91T, S113L
light: B2 light
modifications: p-SCN-Bn-DFO chelator on random lysines of the antibody, 89Zr-labelled; p-SCN-Bn-DFO chelator on random lysines of the antibody, 89Zr-labelled, average 1.30 chelates per antibody
notes: also called huE71-IgG4 (radiolabelled)
[5]
  immunoreactive fraction: 86.7%
